This is an account of results in PubChem BioAssay (NCI).

Where “and” joins values, the source holds several entries; their conditions need not be identical. Equal entries are not always repeated.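 Cultured in 96-well plates, cells were exposed to test compound for 48 hours across five concentrations. GI50: concentration for 50% inhibition of growth. Definition used: TGI = concentration required for complete inhibition of growth.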 Square brackets hold non-standard residues; d marks the D form. Peptide text beside a SMILES is read from it. * marks the point of attachment. ξ: configuration not given here. ξD = NC(CC(=O)O)C(=O)O; Boc = CC(C)(C)OC(=O)*; Aib = CC(C)(N)C(=O)O; OBn = c1ccc(CO*)cc1

The test system of this assay is NCI-H322M lung. Nature of the assay: growth of human tumour cells (NCI), 48 h.
Take `O=S(O)O.O=S(O)O.[Co].[NH2-].[NH2-].[NH2-].[NH2-]`: the GI50 is > 100 µM and the TGI was > 100 µM.
`NC(=O)N/N=C(\CC1OC(=O)c2ccccc21)c1ccc([N+](=O)[O-])cc1` (configuration not stated): the TGI turned out to be 90.4 µM.
As to `CCCN(CCC)c1ccc(/C=N/NC(=O)c2cccnc2)c(C)c1`, the GI50 was 17.7 µM and the TGI is 40.9 µM.
Take `O=C(Nc1ccc(I)cc1F)c1cc(Br)ccc1O`: the GI50 was 0.399 µM and the TGI was > 100 µM.
With `CC(C)N(C(=O)C12C3C4C5C3C1(C(=O)O)C5C42)C(C)C` (configuration not stated), the TGI was > 100 µM.
As to `O=C(COc1ccccc1)NNc1ccccc1`, the GI50 was > 300 µM and the TGI is > 300 µM.
Consider `CCOC(=O)c1c(NN2CCN(CC(F)(F)F)CC2)oc(/C=C2\C=Nc3ncccc32)c1O`, for which the GI50 is 9.27 µM and the TGI was 55.5 µM.
The matching figures for `OCc1ccc(-c2nc(-c3ccc4c(c3)OCO4)c(-c3ccccn3)[nH]2)cc1`: > 25 µM and > 25 µM.
In the case of `COc1c(Sc2c(SCSc3cnc4ccccc4c3Sc3cnc4ccccc4c3OC)cnc3ccccc23)cnc2ccccc12`, the TGI is > 100 µM.
On the same count and under the same terms, for `COc1cc(/C=N/NC(=O)c2c(Cl)c(Cl)c(Cl)c(Cl)c2-c2nc3ccc(C(=O)c4ccccc4)cc3[nH]2)ccc1O` the value was > 100 µM; for `Brc1ccc(-c2[nH]c3ccccc3c2/C=N\Nc2ccc(-c3nc4ccccc4[nH]3)cc2)cc1`, > 100 µM.
On the same count and under the same terms, for `CC1(O)CC2C(CC1SC1CC3C(CC1(C)O)C3(C)C)C2(C)C` (configuration not stated) the value was > 100 µM.
The same measure, in the same setting: for `NC1=NN(c2ccccc2)C(=O)C1C(=O)C(=O)Nc1ccccc1` (configuration not stated) the value was > 100 µM; for `CCS1=C2C(=O)CC(C)(C)CC2=Nc2ccccc21` (configuration not stated), > 100 µM.
With `COc1cccc2c1C(=O)c1c(O)c3c(c(O)c1C2=O)C[C@](O)(C(=O)CO)C[C@H]3O[C@@H]1C[C@@H](NC(=O)CCCN(C)C2(c3ccc(F)cc3)CC3CCC2C3)[C@H](O)[C@@H](C)O1` (some centres not stated), the GI50 is 6.69 µM and the TGI stood at 14.2 µM.
With `CC(=O)OCC12CC(CC1OC(C)=O)c1ccccc12` (configuration not stated), the TGI was > 100 µM.
On to `N#CC(Sc1ccccc1)C(N)=O` (configuration not stated), for which the TGI was > 100 µM.
Same read-out and setting: in the case of `C=C(CN(C)C)C(=O)c1ccccc1OC` it was > 100 µM.
The compound `O=C(C[C@@H]1CCCN2CCCC[C@H]12)N1c2ccccc2Sc2ccc(Cl)cc21` had a TGI of 30.2 µM.
`Cc1[nH]c2ccccc2c1CO`: the GI50 was 19.2 µM and the TGI was 73.9 µM.
The matching figures for `COc1ccc(Sc2[nH]c(C=O)c3ccccc23)cc1`: 8.14 µM and 50.6 µM.
With `Oc1ccc(Br)cc1C=Nc1c(NC2CCCCC2)oc2ccc(Br)cc12`, the TGI is > 100 µM.
On the same count and under the same terms, for `COc1ccc(C2(Cl)C(Cl)(C(F)(F)F)C2(Cl)C(F)(F)F)cc1` (configuration not stated) the value was 29.8 µM; for `CCC1C(NC(=O)OC)C(=O)N1[C@@H](C)c1ccccc1` (some centres not stated), > 100 µM.
Regarding `C=C(C)CC(C(=O)O)c1ccc(C)cc1` (configuration not stated), the TGI was > 100 µM.
Still for that read-out and setting: in the case of `COc1ccc2c(n1)Sc1nc3ccccc3nc1N2` it was > 100 µM.
`CC(C)[C@@]12C[C@@H](OC(=O)C3CO3)[C@@](C)(O1)[C@@H]1CC[C@@H](C)[C@H]1[C@@H]2OC(=O)/C=C/c1ccccc1` (some centres not stated): the GI50 is 14.4 µM and the TGI is 28.9 µM.
`N#CC(NNC(=O)Cc1ccccc1)c1ccc([N+](=O)[O-])cc1` (configuration not stated): the TGI was > 100 µM.
Regarding `O=C1C(Cl)C(c2ccccc2Cl)N1n1cnc2ccccc2c1=O` (configuration not stated), the TGI is > 100 µM.
Take `O=Cc1ccc(-c2ccc(-c3nc4ccccc4s3)cc2)o1`: the GI50 is 53 µM and the TGI is > 100 µM.
The matching figures for `COc1ccc(C2c3ccc4ccccc4c3Oc3ncn(CCCn4ccnc4)c(=N)c32)cc1OC` (configuration not stated): 4.98 µM and 17.5 µM.
For the compound `C[C@@H]1CC[C@@]2(C)OC(c3ccccc3)[C@H](CO)N2C1=O` (some centres not stated), the TGI is > 100 µM.
The compound `O/N=C1/CCCC/C1=C\c1ccc(Cl)c(Cl)c1` registered a TGI of 89.9 µM.
On to `CC1(C)CN(CC(=O)O)CC(Cc2ccc(OCC(=O)O)cc2)N(CC(=O)O)CC(C)(C)SS1` (configuration not stated), for which the TGI was > 100 µM.
On the same count and under the same terms, in the case of `CC(C)(C)OC(=O)NC(CC(=O)OCc1ccccc1)C(=O)NC(C)(C)C(N)=O` (configuration not stated) (Boc-[ξD](OBn)-[Aib]-NH2) it was > 100 µM; in that of `CN(CCNC(=O)c1cn(C)c2c1ccc1ccccc12)CCNC(=O)c1cn(C)c2c1ccc1ccccc12`, > 24.9 µM.
Same read-out and setting: for `CCOC(=O)C(C)NC(=O)NC12CC3CC(CC(F)(C3)C1)C2` (configuration not stated) the value was > 100 µM.
Take `COc1cc2c3c(n(CCCN=[N+]=[N-])c(=O)c2cc1OC)-c1ccccc1C3=O`: the GI50 is 14.5 µM and the TGI is > 100 µM.
The matching figures for `Cn1cnc([N+](=O)[O-])c1S(=O)(=O)Oc1ccc(Cl)cc1`: 62.9 µM and > 100 µM.
Take `CCOC(=O)NC(=O)c1cn(CCSCCOC(=O)NCCCCCCNC(=O)OCCSCCn2cc(C(=O)NC(=O)OCC)c(=O)n(C)c2=O)c(=O)n(C)c1=O`: the TGI was > 100 µM.
Still for that read-out and setting: in the case of `C=CCCn1nc(-c2ccccc2)oc1=O` it was > 100 µM.
As for `O=C(Nc1ccc(Cl)c(C(F)(F)F)c1)Nc1ccc(-c2cccnc2)cc1N1CCC(CO)CC1`, the GI50 is 3.1 µM and the TGI was 78.9 µM.
In the case of `NC(=O)N/N=C\CC(O)(C(F)(F)Cl)C(F)(F)Cl`, the TGI is > 10 µM.
In the case of `C/C(=C/CC[C@](C)(OC1OC(CO)C(O)C(O)C1O)[C@H]1CC[C@]2(C)[C@@H]1CC[C@@H]1[C@@]3(C)CC[C@H](O)C(C)(C)[C@@H]3C[C@H](O)[C@]12CO)CO` (some centres not stated), the TGI is > 100 µM.
In the case of `CCc1cc2c(c(OCC(F)(F)F)c(C(=O)NC3CCN(C(=O)CO)CC3)n2C)c(=O)n1CC(=O)c1ccccc1`, the GI50 was 97.9 µM and the TGI is > 100 µM.
Regarding `CC(=O)O[C@@H]1c2c(c3c(=O)c4cccc(O)c4c(=O)c=3c2=[N+]=[N-])[C@H](OC(C)=O)[C@@H](OC(C)=O)[C@]1(C)O`, the GI50 is 0.784 µM; the TGI is 1.32 µM and 2.03 µM.
Regarding `CC(=O)N1c2ccccc2N(C(C)=O)C1c1ccc(C2N(C(C)=O)c3ccccc3N2C(C)=O)[nH]1`, the TGI was > 100 µM.
Consider `c1ccc(/C(=N\Nc2nc3ccccc3[nH]2)c2ccccn2)cc1`, for which the TGI was determined as 2.58 µM.
On the same count and under the same terms, in the case of `Cc1nc(C(N)=S)sc1C(=O)CC(=O)C(=O)Nc1ccc(Br)cc1` it was > 100 µM.
As to `O=C1Nc2cccc(Cl)c2/C1=C\c1cccnc1`, the TGI turned out to be 33.8 µM.
Same read-out and setting: for `COc1ccccc1NC1Oc2cc3c(cc2C(c2cc(OC)c(OC)c(OC)c2)C1C)OCO3` (configuration not stated) the value was > 100 µM.
On the same count and under the same terms, for `Cc1cc(C)c2c(=O)n(CC(O)CN(Cc3ccccc3)CC(O)Cn3sc4nc(C)cc(C)c4c3=O)sc2n1` (configuration not stated) the value was 33.7 µM; for `O=C(NCCCCCCCCNC(=O)Nc1cccc2ccccc12)Nc1cccc2ccccc12`, > 100 µM.
On the same count and under the same terms, in the case of `Cn1cnc([N+](=O)[O-])c1Sc1n[nH]c(-c2ccc(Cl)cc2)n1` it was 52.7 µM.
`C[C@]12CC[C@H]3[C@@H](CC=C4C[C@@H](O)CC[C@@]43C)[C@@H]1C/C(=C\c1ccncc1)[C@@H]2O` registered a TGI of 51.7 µM.
Same read-out and setting: for `Cc1n[nH]c(=O)n1C1CC1` the value was > 100 µM.
On to `CCCCCCCCCCCCCCCCn1cc[n+](C)c1`, for which the GI50 was 1.23 µM and the TGI is 2.55 µM.
Take `COC(=O)C(Cc1nc2ccc(Cl)cc2[nH]c1=O)C(=O)C(=O)Nc1cc(C)ccc1C` (configuration not stated): the TGI was > 100 µM.
In the case of `CC[C@]12CN3CCc4c([nH]c5ccccc45)[C@@](C(=O)OC)(c4cc5c(cc4OC)N(C)[C@H]4[C@@](O)(C(=O)OC)[C@H](OC(C)=O)[C@]6(CC)C=CCN7CC[C@]54[C@@H]76)CC(C3)[C@H]1O2` (some centres not stated), the GI50 was 0.176 µM and the TGI was > 100 µM.
For `Cc1cc(N(CCC#N)CCC#N)ccc1/C=C1N=C(/C=C\c2ccccc2)N(NC(=O)CC(=O)Nc2ccccc2Cl)C\1=O`, the TGI is > 100 µM.
As to `NC1CCN(c2nc3ccccc3c3c2CCCC3)CC1`, the TGI was 13.2 µM.
Same read-out and setting: for `O=C(CSCC(=O)N/N=C\c1ccc(F)cc1F)N/N=C\c1ccc(F)cc1F` the value was > 100 µM.
With `CC(=O)OCC1OC(SC2=N/C(=C\c3ccc(Br)s3)C(=O)N2c2ccccc2)C(OC(C)=O)C(OC(C)=O)C1OC(C)=O` (configuration not stated), the TGI was > 100 µM.
Turning to `CCOc1ccc(N(CC(=O)N2CC(=O)Nc3cc(C)c(C)cc32)C(C)=O)cc1`, the TGI is > 100 µM.
For the compound `COc1cc2c3c(n(CCCN=[N+]=[N-])c(=O)c2cc1OC)-c1ccc([N+](=O)[O-])cc1C3=O`, the GI50 was > 100 µM and the TGI was > 100 µM.
In the case of `CCCCCCCCCCCCc1ccc(S(=O)(=O)O)cc1.[Cu+2]`, the TGI was > 100 µM.
As for `COc1cc2c3c(n(CCCN=[N+]=[N-])c(=O)c2cc1OC)-c1ccc(F)cc1C3=O`, the GI50 is 55.5 µM and the TGI is > 100 µM.
Consider `C=CC12CCCCC1CC(C(=O)OC)=C(O)C2` (configuration not stated), for which the TGI is > 100 µM.
Turning to `COc1ccc(O)c(/C=N\Nc2ccccc2)c1`, the TGI is > 100 µM.
Still for that read-out and setting: in the case of `Cn1cc(NC(=O)Nc2cc(C(=O)Nc3cc(C(=O)Nc4ccc5cc(S(=O)(=O)O)cc(S(=O)(=O)O)c5c4)n(C)c3)n(C)c2)cc1C(=O)Nc1cc(C(=O)Nc2ccc3cc(S(=O)(=O)O)cc(S(=O)(=O)O)c3c2)n(C)c1` it was > 100 µM; in that of `C[C@]12Cc3conc3C(O)=C1CC[C@@H]1C2CC[C@@]2(C)C1CC[C@@H]2O` (some centres not stated), 89 µM.
